According to PubChem BioAssay AID1745853 (National Center for Advancing Translational Sciences (NCATS), 2022):
Some of the results follow. Shown are side measurements of this screen, not its main read-out; they come without a call.

How the values were obtained:
Experiment in all cases: Primary Screen for Target Class Profiling of Small Molecule Inhibitors of Methyltransferases
[1] = molecular target: Glycine N-methyltransferase (Homo sapiens) (UniProt Q14749); settings: purified enzyme, MTase-Glo SAH luminescence; measured here: GNMT inhibition; at 40 µM; stronger effect = lower value
Outline: (§1)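 Each enzyme was assayed with SAM and its substrate. SAH formation detected by MTase-Glo luminescence; single-point 40 uM screen[…].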

[2] = molecular target: Guanidinoacetate N-methyltransferase (Homo sapiens) (UniProt Q14353); settings: purified enzyme, MTase-Glo SAH luminescence; measured here: GAMT inhibition; at 40 µM; stronger effect = lower value
Outline: as §1

[3] = molecular target: Histamine N-methyltransferase (Homo sapiens) (UniProt P50135); settings: purified enzyme, MTase-Glo SAH luminescence; measured here: HNMT inhibition; at 40 µM; stronger effect = lower value
Outline: as §1

[4] = molecular target: Nicotinamide N-methyltransferase (Homo sapiens) (UniProt P40261); settings: purified enzyme, MTase-Glo SAH luminescence; measured here: NNMT inhibition; at 40 µM; stronger effect = lower value
Outline: as §1

[5] = molecular target: Phenylethanolamine N-methyltransferase (Homo sapiens) (UniProt P11086); settings: purified enzyme, MTase-Glo SAH luminescence; measured here: PNMT inhibition; at 40 µM; stronger effect = lower value
Outline: as §1
On the % scale 0 is the no-effect control and ±100 the full control effect.

Row | Structure (SMILES) | activity change, negative = inhibition [1] [%] | activity change, negative = inhibition [2] [%] | activity change, negative = inhibition [3] [%] | activity change, negative = inhibition [4] [%] | activity change, negative = inhibition [5] [%]
1 | CCC(C)C(=O)N1CCC2(CCc3nn(Cc4ccccc4)c(=O)n3CC2)CC1 (stereo not drawn) | -3.75 | 1.44 | 1.56 | -0.739 | 3.52
2 | OC(CN1CCC(Cc2ccc(F)cc2)CC1)c1ccc(Cl)cc1 (stereo not drawn) | -3.45 | 6.87 | -0.561 | -6.18 | 2.31
3 | COc1ccc(CCNC(=O)CN(C)S(=O)(=O)c2ccc3[nH]c4c(c3c2)CCCC4)cc1OC | -20.6 | 2.25 | -4.67 | -19.5 | 0.689
4 | CC(C)NC[C@@H](O)c1ccc(O)c(O)c1 | -35.5 | 1.09 | 0.482 | -13.4 | -18.3
5 | O=C1CCCN1CCCNc1nc2c(S(=O)(=O)c3ccc(Br)cc3)nnn2c2ccccc12 | -4.45 | 0.226 | -1.12 | 1.34 | -2.88
6 | C[C@@H]1O[C@@H](O[C@H]2[C@@H]3C=CO[C@@H](O[C@@H]4O[C@H](CO)[C@@H](O)[C@H](O)[C@H]4O)[C@@H]3[C@@]3(CO)O[C@@H]23)[C@H](OC(=O)/C=C/c2ccc(O)c(O)c2)[C@H](O)[C@H]1O | 0.68 | -7.24 | -0.704 | -17.8 | 0.693
7 | Cc1nn(CCC#N)c(C)c1[C@@H]1C=C[C@@H](NCc2ccc(C(C)C)cc2)C1 | -4.63 | -3.94 | -17.5 | -14.9 | -9.35
8 | CC(=O)Nc1c2n(c3ccc(F)cc13)CC(C)(C(=O)NC1CCCC1)N(Cc1cccnc1)C2=O (stereo not drawn) | 4 | 0 | 6.25 | 1.85 | 0.65
9 | CC(C)CNC(=O)c1ccc2c(=O)n(Cc3ccccc3)c3nn(Cc4ccccc4)c(=O)n3c2c1 | 0.869 | 0 | 3.07 | 2.08 | 3.21
10 | CN(C(=O)Cc1c[nH]c2ccccc12)C1CCc2nn(C)c(=O)n2CC1 (stereo not drawn) | -0.437 | 0.458 | 1.56 | -0.404 | 2.32
11 | C=CCn1c(=O)c2ccc(C(=O)NC(C)C)cc2n2c(=O)n(CC(=O)Nc3ccccc3CC)nc12 | 4.64 | 5.03 | 7.31 | -2.09 | -0.183
12 | COc1ccc(Nc2cnc3ccc(-c4ccccc4)nn23)cc1 | -10.9 | -2.71 | -2.98 | -4.61 | -3.58
13 | COc1ccc(CNC(=O)c2ccc3c(=O)nc4c(-c5cccc(F)c5)n[nH]n4c3c2)cc1 | 0.965 | 0 | 2.32 | 3.49 | -3.57
14 | COc1ccc(CNc2nc3c(-c4cccc(Br)c4)nnn3c3ccccc23)cc1 | -5.63 | -4.77 | -6.33 | -19.2 | -9.52
15 | CN1C[C@@H](NC(=O)NC2CCCCC2)C[C@H]1c1nc(Cc2ccccc2)no1 | 0.53 | 0.703 | 2.56 | -0.196 | -0.557
16 | CC(=O)O[C@@H]1C[C@H](O)[C@@]23CO[C@H](O)[C@]1(C)C2C[C@@H](O)[C@]1(C)C3C(=O)[C@H](OC(C)=O)[C@@]2(C)[C@H](c3ccoc3)C[C@H]3O[C@]321 (stereo partly drawn) | 4.7 | 6.49 | 9.97 | -6.95 | 3.99
17 | CCn1c(=O)n(CC)c2cc(S(=O)(=O)Nc3ccc(Cl)cc3)ccc21 | -3.03 | 4.98 | -3.51 | -13.4 | -0.876
18 | CCOC(=O)c1cc2n(n1)CC(C)(C(=O)NC1CCCC1)N(c1ccccc1CC)C2=O (stereo not drawn) | 0.481 | 0 | -0.305 | -1.97 | 1.37
19 | CC1(C(=O)NCc2ccccc2)Cn2c(cc3ccccc32)C(=O)N1CCc1cccs1 (stereo not drawn) | 1.9 | 3.81 | 5.03 | 1.46 | 0.67
20 | NC(=O)CO[C@@H]1CO[C@H]2[C@@H]1OC[C@@H]2NC(=O)NCc1ccccc1 | -4.24 | -7.59 | -2.12 | -11.5 | -7.41
21 | COc1ccc(NC(=O)[C@@H]2C[C@H](c3ccc(F)cc3)N(Cc3csc(C)n3)C2)cn1 | -14.8 | -11 | -6.41 | -25.4 | -16.5
22 | CCCS(=O)(=O)c1nc(NC2CC2)cc(-c2ccc3c(ccn3C3CC(C)(C)NC(C)(C)C3)c2)n1 |  | 5.68 |  | -29.2 | -12.6
23 | Cc1ccc(CN2CC(=O)N(Cc3ccc(Cl)cc3)c3ccccc3S2(=O)=O)cc1 | -1.02 | 3.57 | -8.12 | -6.63 | -6.89
24 | COc1ccccc1CNC(=O)C1(C)Cn2nc(-c3ccccc3)cc2C(=O)N1Cc1ccccc1C (stereo not drawn) | 5.28 | 0.886 | 4.38 | 3.24 | 0.929
25 | CCC(C(=O)NCCc1ccc(Cl)cc1)n1ccc2cc(S(=O)(=O)N3CCCCC3)ccc21 (stereo not drawn) | 2.65 | 0 | 3.76 | 0.091 | 0.075
26 | CCc1ccc(N2CC(c3noc(C4(c5ccccc5)CC4)n3)CC2=O)cc1 (stereo not drawn) | -3.17 | 0.336 | -2.08 | -3.63 | 7.97
27 | C=C1C(O[C@@H]2O[C@H](CO)[C@@H](O)[C@H](O)[C@@H]2O)CC2C(C)(C)C(O)CCC2(C)C1CC/C(C)=C\CO (stereo partly drawn) | -0.233 | 1.33 | 1.17 | -12.4 | 4.93
28 | CCOc1ccc(NC(=O)CN(C)S(=O)(=O)c2ccc3[nH]c4c(c3c2)CCCC4)cc1 | -6.8 | -1.98 | -4.69 | -11.2 | -0.772
29 | CCc1noc(-c2ccn3c(CNC(=O)c4ccc(C)c(F)c4)nnc3c2)n1 | -4.74 | -3.58 | -1.39 | -9.99 | -6.18
